Test results: article PMC12820563
Some of the results follow. The list includes weakly bound sequences.

target: T1, MBP-FoxP3dN (UniProt Q99JB6); assay: PD-seq (MBP pull-down with sequencing); conditions: 20 mM Tris-HCl pH 7.5, 100 mM NaCl, 1.5 mM MgCl2, 0.4 uM protein, 0.1 uM dsDNA library, 30 min, room temperature, amylose pull-down; high values mean tight binding; double strand, one strand shown
T1 sequence: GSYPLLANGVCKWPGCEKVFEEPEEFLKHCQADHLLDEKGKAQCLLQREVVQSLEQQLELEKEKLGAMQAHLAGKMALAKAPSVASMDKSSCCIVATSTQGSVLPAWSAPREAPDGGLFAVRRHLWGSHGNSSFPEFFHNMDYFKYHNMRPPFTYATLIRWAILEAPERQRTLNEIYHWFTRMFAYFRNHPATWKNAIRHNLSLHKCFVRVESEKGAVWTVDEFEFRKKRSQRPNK

Sequence	binding signal (RPM ratio (pull-down/input))
GATGATTGTTCTCCCAGCTGATGAATTTGTGCAATCGAGTAAACAAATTTTCCTAATCTTTCTGTTCAAGCGCCATCTAC	4.74
GATGATTGTTCTCCCAGCTGATGAATTCTGGGGCTCGAGTAAACAAATTTTCCTAATCTTTCTGTTCAAGCGCCATCTAC	0.253
GATGATTGTTCTCCCAGCTGATGAATTGCGGACATCGAGTAAACAAATTTTCCTAATCTTTCTGTTCAAGCGCCATCTAC	0.781
GATGATTGTTCTCCCAGCTGATGAATTTCACAGTTCGAGTAAACAAATTTTCCTAATCTTTCTGTTCAAGCGCCATCTAC	0.328
GATGATTGTTCTCCCAGCTGATGAATTAGGGTAGTCGAGTAAACAAATTTTCCTAATCTTTCTGTTCAAGCGCCATCTAC	0.535
GATGATTGTTCTCCCAGCTGATGAATTCAAGCCTTCGAGTAAACAAATTTTCCTAATCTTTCTGTTCAAGCGCCATCTAC	1.29
GATGATTGTTCTCCCAGCTGATGAATTGTAACGGTCGAGTAAACAAATTTTCCTAATCTTTCTGTTCAAGCGCCATCTAC	0.469
GATGATTGTTCTCCCAGCTGATGAATTTTTCGTATCGAGTAAACAAATTTTCCTAATCTTTCTGTTCAAGCGCCATCTAC	0.378
GATGATTGTTCTCCCAGCTGATGAATTCGGGTACTCGAGTAAACAAATTTTCCTAATCTTTCTGTTCAAGCGCCATCTAC	0.645
GATGATTGTTCTCCCAGCTGATGAATTCGGCAATTCGAGTAAACAAATTTTCCTAATCTTTCTGTTCAAGCGCCATCTAC	4.03
GATGATTGTTCTCCCAGCTGATGAATTCATATCGTCGAGTAAACAAATTTTCCTAATCTTTCTGTTCAAGCGCCATCTAC	0.845
GATGATTGTTCTCCCAGCTGATGAATTTCATGACTCGAGTAAACAAATTTTCCTAATCTTTCTGTTCAAGCGCCATCTAC	0.388
GATGATTGTTCTCCCAGCTGATGAATTCTTGCCATCGAGTAAACAAATTTTCCTAATCTTTCTGTTCAAGCGCCATCTAC	1.84
GATGATTGTTCTCCCAGCTGATGAATTAGTTACATCGAGTAAACAAATTTTCCTAATCTTTCTGTTCAAGCGCCATCTAC	0.891
GATGATTGTTCTCCCAGCTGATGAATTGGAATATTCGAGTAAACAAATTTTCCTAATCTTTCTGTTCAAGCGCCATCTAC	0.465
GATGATTGTTCTCCCAGCTGATGAATTTGTATACTCGAGTAAACAAATTTTCCTAATCTTTCTGTTCAAGCGCCATCTAC	7.1
GATGATTGTTCTCCCAGCTGATGAATTACGCACCTCGAGTAAACAAATTTTCCTAATCTTTCTGTTCAAGCGCCATCTAC	1.35
GATGATTGTTCTCCCAGCTGATGAATTGCATGTATCGAGTAAACAAATTTTCCTAATCTTTCTGTTCAAGCGCCATCTAC	2.88
GATGATTGTTCTCCCAGCTGATGAATTGGCCAGCTCGAGTAAACAAATTTTCCTAATCTTTCTGTTCAAGCGCCATCTAC	0.253
GATGATTGTTCTCCCAGCTGATGAATTTGATGTGTCGAGTAAACAAATTTTCCTAATCTTTCTGTTCAAGCGCCATCTAC	6.14
GATGATTGTTCTCCCAGCTGATGAATTGAGATTTTCGAGTAAACAAATTTTCCTAATCTTTCTGTTCAAGCGCCATCTAC	0.596

Sequence	binding signal (RPM ratio (pull-down/input))
GATGATTGTTCTCCCAGCTGATGAATTGTTTATTTCGAGTAAACAAATTTTCCTAATCTTTCTGTTCAAGCGCCATCTAC	6.99
GATGATTGTTCTCCCAGCTGATGAATTCCTGCTTTCGAGTAAACAAATTTTCCTAATCTTTCTGTTCAAGCGCCATCTAC	0.695
GATGATTGTTCTCCCAGCTGATGAATTGTCAAAATCGAGTAAACAAATTTTCCTAATCTTTCTGTTCAAGCGCCATCTAC	0.24
GATGATTGTTCTCCCAGCTGATGAATTAGGCACTTCGAGTAAACAAATTTTCCTAATCTTTCTGTTCAAGCGCCATCTAC	0.813
GATGATTGTTCTCCCAGCTGATGAATTTCTGAGATCGAGTAAACAAATTTTCCTAATCTTTCTGTTCAAGCGCCATCTAC	0.215
GATGATTGTTCTCCCAGCTGATGAATTAGATACGTCGAGTAAACAAATTTTCCTAATCTTTCTGTTCAAGCGCCATCTAC	0.583
GATGATTGTTCTCCCAGCTGATGAATTCGGTCGGTCGAGTAAACAAATTTTCCTAATCTTTCTGTTCAAGCGCCATCTAC	0.238
GATGATTGTTCTCCCAGCTGATGAATTATGACTCTCGAGTAAACAAATTTTCCTAATCTTTCTGTTCAAGCGCCATCTAC	2.29
GATGATTGTTCTCCCAGCTGATGAATTCAAATGTTCGAGTAAACAAATTTTCCTAATCTTTCTGTTCAAGCGCCATCTAC	0.501
GATGATTGTTCTCCCAGCTGATGAATTGTGTTGTTCGAGTAAACAAATTTTCCTAATCTTTCTGTTCAAGCGCCATCTAC	8.43
GATGATTGTTCTCCCAGCTGATGAATTCTCGGGATCGAGTAAACAAATTTTCCTAATCTTTCTGTTCAAGCGCCATCTAC	0.184
GATGATTGTTCTCCCAGCTGATGAATTTGCACCCTCGAGTAAACAAATTTTCCTAATCTTTCTGTTCAAGCGCCATCTAC	0.844
GATGATTGTTCTCCCAGCTGATGAATTTAGATCTTCGAGTAAACAAATTTTCCTAATCTTTCTGTTCAAGCGCCATCTAC	0.428
GATGATTGTTCTCCCAGCTGATGAATTCCACTAATCGAGTAAACAAATTTTCCTAATCTTTCTGTTCAAGCGCCATCTAC	0.298
GATGATTGTTCTCCCAGCTGATGAATTTCGCACCTCGAGTAAACAAATTTTCCTAATCTTTCTGTTCAAGCGCCATCTAC	1.65
GATGATTGTTCTCCCAGCTGATGAATTCTCGGCATCGAGTAAACAAATTTTCCTAATCTTTCTGTTCAAGCGCCATCTAC	0.601
GATGATTGTTCTCCCAGCTGATGAATTATTTCGTTCGAGTAAACAAATTTTCCTAATCTTTCTGTTCAAGCGCCATCTAC	0.436
GATGATTGTTCTCCCAGCTGATGAATTTTTGCACTCGAGTAAACAAATTTTCCTAATCTTTCTGTTCAAGCGCCATCTAC	0.699
GATGATTGTTCTCCCAGCTGATGAATTGCTATAATCGAGTAAACAAATTTTCCTAATCTTTCTGTTCAAGCGCCATCTAC	0.663
GATGATTGTTCTCCCAGCTGATGAATTATCCTGATCGAGTAAACAAATTTTCCTAATCTTTCTGTTCAAGCGCCATCTAC	0.184
GATGATTGTTCTCCCAGCTGATGAATTCCCCCCTTCGAGTAAACAAATTTTCCTAATCTTTCTGTTCAAGCGCCATCTAC	0.244

Sequence	binding signal (RPM ratio (pull-down/input))
GATGATTGTTCTCCCAGCTGATGAATTGTGGTGCTCGAGTAAACAAATTTTCCTAATCTTTCTGTTCAAGCGCCATCTAC	1.35
GATGATTGTTCTCCCAGCTGATGAATTTCGTCCGTCGAGTAAACAAATTTTCCTAATCTTTCTGTTCAAGCGCCATCTAC	0.374
GATGATTGTTCTCCCAGCTGATGAATTTCCGAGTTCGAGTAAACAAATTTTCCTAATCTTTCTGTTCAAGCGCCATCTAC	0.383
GATGATTGTTCTCCCAGCTGATGAATTCGTACAGTCGAGTAAACAAATTTTCCTAATCTTTCTGTTCAAGCGCCATCTAC	0.349
GATGATTGTTCTCCCAGCTGATGAATTTCCACCCTCGAGTAAACAAATTTTCCTAATCTTTCTGTTCAAGCGCCATCTAC	0.274
GATGATTGTTCTCCCAGCTGATGAATTCAGGGATTCGAGTAAACAAATTTTCCTAATCTTTCTGTTCAAGCGCCATCTAC	0.401
GATGATTGTTCTCCCAGCTGATGAATTGTCATGCTCGAGTAAACAAATTTTCCTAATCTTTCTGTTCAAGCGCCATCTAC	0.724
GATGATTGTTCTCCCAGCTGATGAATTTGAGTGATCGAGTAAACAAATTTTCCTAATCTTTCTGTTCAAGCGCCATCTAC	0.633
GATGATTGTTCTCCCAGCTGATGAATTTCTCGCCTCGAGTAAACAAATTTTCCTAATCTTTCTGTTCAAGCGCCATCTAC	0.486
GATGATTGTTCTCCCAGCTGATGAATTCCAGCGTTCGAGTAAACAAATTTTCCTAATCTTTCTGTTCAAGCGCCATCTAC	0.981
GATGATTGTTCTCCCAGCTGATGAATTGACAAGCTCGAGTAAACAAATTTTCCTAATCTTTCTGTTCAAGCGCCATCTAC	0.373
GATGATTGTTCTCCCAGCTGATGAATTTGACTTTTCGAGTAAACAAATTTTCCTAATCTTTCTGTTCAAGCGCCATCTAC	0.49
GATGATTGTTCTCCCAGCTGATGAATTGACCGGTTCGAGTAAACAAATTTTCCTAATCTTTCTGTTCAAGCGCCATCTAC	0.287
GATGATTGTTCTCCCAGCTGATGAATTGTAAATCTCGAGTAAACAAATTTTCCTAATCTTTCTGTTCAAGCGCCATCTAC	0.565
GATGATTGTTCTCCCAGCTGATGAATTGAGTTGTTCGAGTAAACAAATTTTCCTAATCTTTCTGTTCAAGCGCCATCTAC	3.69
GATGATTGTTCTCCCAGCTGATGAATTCGCGTGATCGAGTAAACAAATTTTCCTAATCTTTCTGTTCAAGCGCCATCTAC	1.17
GATGATTGTTCTCCCAGCTGATGAATTGAAATCCTCGAGTAAACAAATTTTCCTAATCTTTCTGTTCAAGCGCCATCTAC	0.228
GATGATTGTTCTCCCAGCTGATGAATTAACGAGGTCGAGTAAACAAATTTTCCTAATCTTTCTGTTCAAGCGCCATCTAC	0.25
GATGATTGTTCTCCCAGCTGATGAATTGTCTACGTCGAGTAAACAAATTTTCCTAATCTTTCTGTTCAAGCGCCATCTAC	0.986
GATGATTGTTCTCCCAGCTGATGAATTCCAAGCGTCGAGTAAACAAATTTTCCTAATCTTTCTGTTCAAGCGCCATCTAC	0.443
GATGATTGTTCTCCCAGCTGATGAATTTACTCCATCGAGTAAACAAATTTTCCTAATCTTTCTGTTCAAGCGCCATCTAC	0.462
